Test results published in PubChem BioAssay AID360 (National Center for Advancing Translational Sciences (NCATS), 2006).
Hit rate of the full screen: of about 48,000 compounds, about 550 (1.1%) were called active. Inconclusive results (about 4%) are left out. No stated cut-off is given here; in the data, active means potency below about 15 µM; inconclusive means mostly about 16 µM to 33 µM; inactive means weaker than that. The list shows a part of the results.

Target: Lysosomal acid glucosylceramidase (Homo sapiens) (UniProt P04062)
Assay: Glucocerebrosidase;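 further: the screen sought inhibitors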
Conditions: purified enzyme, resorufin glucoside fluorescence (screen aimed at inhibitors), 20 min
Outline: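 Compounds titrated against 0.2 nM normal enzyme, 30 uM resorufin beta-D-glucopyranoside substrate, citrate/phosphate buffer with taurocholate and tween-20, pH 5.9. Reaction ran 20 min at room temperature; fluorescence (Ex 548/Em 600) gave AC50.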
Potency means the concentration at half of the fitted maximal effect.

UniProt P04062, sequence (P04062 whole entry, looked up): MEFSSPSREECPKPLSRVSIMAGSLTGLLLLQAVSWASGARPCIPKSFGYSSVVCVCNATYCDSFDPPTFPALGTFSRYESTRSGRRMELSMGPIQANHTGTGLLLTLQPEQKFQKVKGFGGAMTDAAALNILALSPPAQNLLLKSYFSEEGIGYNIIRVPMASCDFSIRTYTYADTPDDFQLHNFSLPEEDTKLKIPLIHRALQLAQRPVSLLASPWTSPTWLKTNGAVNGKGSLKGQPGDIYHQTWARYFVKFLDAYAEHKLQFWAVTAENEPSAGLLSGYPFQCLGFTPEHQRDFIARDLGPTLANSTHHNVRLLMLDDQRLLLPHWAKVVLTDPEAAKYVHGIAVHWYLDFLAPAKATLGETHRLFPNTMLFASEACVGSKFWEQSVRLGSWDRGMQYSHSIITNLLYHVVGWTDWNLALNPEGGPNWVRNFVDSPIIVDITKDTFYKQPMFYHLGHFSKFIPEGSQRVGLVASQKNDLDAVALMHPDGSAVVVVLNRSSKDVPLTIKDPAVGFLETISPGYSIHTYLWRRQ

Potency, inactive:
CC(=O)Nc1ccc(S(=O)(=O)NCc2csc(-c3cccnc3)n2)cc1 > 76.9 µM, O=C(CN(Cc1ccc(F)cc1)C(=O)CCC(=O)Nc1ccccn1)NCc1ccco1 > 76.9 µM, CCC1=Nc2ccccc2-c2nnc(SC)nc2O1 > 76.9 µM, Cc1cc(C)c2[nH]c(=O)c(CN(Cc3ccco3)C(=O)C3CCCO3)cc2c1 (stereo not drawn) > 76.9 µM, COC(=O)c1[nH]c2ccc(C)cc2c1NC(=O)CN1CCN(c2ccccc2)CC1 > 76.9 µM, COc1ccc(NC(=O)CSc2nccn2-c2ccccc2)cc1 > 76.9 µM, Cc1ccc(-n2nnnc2SCC(=O)Nc2ccc3c(c2)COC3=O)cc1C > 76.9 µM, Cc1noc(C)c1S(=O)(=O)N1CCC(C(=O)N2CCC(C)CC2)CC1 > 76.9 µM, Cc1nnc(SCC(=O)c2cc(C)n(-c3ccc4c(c3)OCO4)c2C)s1 > 76.9 µM, NC(=O)c1ccsc1NC(=O)COC(=O)C1CCCN1C(=O)c1cccs1 (stereo not drawn) > 76.9 µM, CCCc1nc2c(nnn2Cc2ccccc2)c(=O)[nH]1 > 76.9 µM, CCn1c(C)c(CCC(=O)O)c(=O)n2nc(-c3ccccc3OC)cc12 > 76.9 µM, Cc1cc(C)nc(SCc2ccc(C(=O)O)o2)n1 > 76.9 µM, Cc1ccsc1/C=c1\sc2ncnn2c1=O > 76.9 µM, CC(=O)N1CCc2cc(S(=O)(=O)CCC(=O)Nc3cccc(F)c3)ccc21 > 76.9 µM, CC(C)Oc1ccc(C(=O)NCc2ccco2)cc1 > 76.9 µM, C=C(C)Cn1c(CCCNC(=O)C(C)(C)C)nc2ccccc21 > 76.9 µM, NC(=O)CSc1nnc(-c2ccc(S(=O)(=O)N3CCOCC3)cc2)n1Cc1ccccc1 > 76.9 µM, Fc1ccccc1N1CCN(C(c2cccs2)c2nnnn2CCc2ccccc2)CC1 (stereo not drawn) > 76.9 µM, O=C(CN1CCN(Cc2ccc3c(c2)OCO3)CC1)N1CCc2[nH]c3ccccc3c2C1, COCC(=O)NC1CC2CCCC(C1)N2Cc1ccccc1 (stereo not drawn) > 76.9 µM, COc1ccc(C(O)C(CC(=O)NCCCOC(C)C)C(=O)NCCCOC(C)C)cc1OC (stereo not drawn) > 76.9 µM, Cn1cnnc1SCC(=O)Nc1sc2c(c1C#N)CCCCC2 > 76.9 µM, Cc1ccc2c(c1)[nH]c1c(=O)n(CCCN3CCOCC3)cnc12 > 76.9 µM, c1nnn(C23CC4CC(CC(C4)C2)C3)n1 > 76.9 µM, CCOc1ccccc1N(C)C(=O)C1CCN(S(=O)(=O)c2cccc3nonc23)CC1 > 76.9 µM, C=CCn1c(C)cc(C(=O)COc2ncnc3sccc23)c1C > 76.9 µM, O=C(CCN1C(=O)C2C3C=CC(C3)C2C1=O)NCCc1ccccc1 (stereo not drawn) > 76.9 µM, CCn1c(=O)cc(OCC(=O)Nc2ccc(Cl)cn2)c2ccccc21 > 76.9 µM, CCCn1c(Sc2nnnn2-c2ccccc2)n[nH]c1=O > 76.9 µM, O=C(OCc1cc(Cl)ccc1OC(F)F)c1cc(S(=O)(=O)O)ccc1O > 76.9 µM, Cc1cc(C)c2cc(CN(Cc3cccs3)Cc3nnnn3CC3CCCO3)c(=O)[nH]c2c1 (stereo not drawn) > 76.9 µM, Cc1nnc(SCc2cc(=O)[nH]c(N3CCN(Cc4ccccc4)CC3)n2)s1 > 76.9 µM, CCOC(=O)c1cc(-c2ccc(N)cc2)sc1N > 76.9 µM, CC1(C)C2CC=C(/C=N/n3cnnc3)C1C2 (stereo not drawn) > 76.9 µM, O=C(CCN1CCN(CC(=O)Nc2ccccc2F)CC1)Nc1ccccc1F > 76.9 µM, C=CCn1c(COc2ccccc2C)nnc1SCC(=O)O > 76.9 µM, COc1cccc2cc(C(=O)N3CCN(C45CC6CC(CC(C6)C4)C5)CC3)c(=O)oc12 > 76.9 µM, COc1ccc(NC(=O)C(CC(C)C)NC(=O)c2ccccc2C)cn1 (stereo not drawn) > 76.9 µM, CC1=C(C)CS(=O)N(c2ccc(S(N)(=O)=O)cc2)C1 (stereo not drawn) > 76.9 µM, Cc1ccc(C2CCN(C(=O)Nc3ccccc3)C2)cc1 (stereo not drawn) > 76.9 µM, CC(C)N(Cc1nnc(-c2ccccc2Cl)o1)C(=O)c1cccc(C#N)c1 > 76.9 µM, c1cc(C2OCCN2CC2COC3(CCCC3)O2)ccn1 (stereo not drawn) > 76.9 µM, O=C(OCc1nc2ccccc2s1)c1cccc(S(=O)(=O)N2CCOCC2)c1 > 76.9 µM, COc1ccc(CCNC(=O)c2nnn(-c3ccc4c(c3)OCCO4)c2N)cc1OC > 76.9 µM, COc1ccc(-c2nc(C#N)c(NCc3ccccc3Cl)o2)cc1 > 76.9 µM, C1=C(c2ccc(-c3ccccc3)cc2)Nc2ncnn2C1c1ccco1 (stereo not drawn) > 76.9 µM, O=C(NCc1ccco1)c1cc2sccc2n1Cc1ccc(F)cc1, CCOc1ccc(NC(=O)C/C(N)=N/O)cc1 > 76.9 µM, COCc1nnc(NS(=O)(=O)c2ccc(NC(C)=O)cc2)s1 > 76.9 µM, COc1ccc(C2SCCN2S(=O)(=O)c2ccc(F)cc2)cc1OC (stereo not drawn) > 76.9 µM, CC(=O)Nc1ccc(S(=O)(=O)NCCC(=O)OCCN2C(=O)c3ccccc3C2=O)cc1 > 76.9 µM, CN=C(NC#N)SCC(=O)c1ccc(Cl)cc1Cl > 76.9 µM, CN(C)S(=O)(=O)Nc1ccc(C(=O)O)cc1 > 76.9 µM, OC(COc1cccc(OCC(O)CN2CCOCC2)c1)CN1CCOCC1 (stereo not drawn) > 76.9 µM, Cc1ccc(S(=O)(=O)NCc2ccc(C(=O)N(C)CCC#N)cc2)cc1 > 76.9 µM, CN(C(=O)c1cccnc1)c1nc(-c2ccccc2)cs1 > 76.9 µM, CC(C)n1c(N2CCN(CC(=O)NCc3cccs3)CC2)nc2ccccc21 > 76.9 µM
